# Measurements published in patent US20240101686A1 (SIMCERE ZAIMING PHARMACEUTICAL, published 2024).
# B1: S008-NB148-30 (Fc fusion)
# chain: EVQLVESGGGLVRAGGSLRLSCAASGTISSYDVVGWYRQAPGKQRELVALIGTDRWLNLGDFAKGRFTMSTDDAANTVDLEMNSLKPEDTAVYYCYTFQHTVGPRWGQGTQVTVSS[human IgG1 Fc with changes not shown]
# notes: Tested as VHH-Fc; order VHH-hinge-Fc inferred
# B2: S008-NB149-9 (Fc fusion)
# chain: QVQLVESGGFVQAGGSLRLSCAASGRTFSKYAMGWFRQAPGKEREFVAAIRWIGGSTYYADSVKGRFTISRDNDKNTLYLQMNSLKPEDTAVYYCAAGYQAYPEPPWEYDYWGQGTQVTVSS[human IgG1 Fc with changes not shown]
# notes: as for B1
# B3: S008-NB148-9 (Fc fusion)
# chain: EVQLVESGGGLVQAGGSLRLSCAASGSTLSSYAMGWYRQAPGKQRELVAAISSGGGSTNYRDSVKGRFTISRDNAKNTVYLQMNSLKPEDTAVYYCKSTDYGSLFDSWGQGTQVTVSS[human IgG1 Fc with changes not shown]
# notes: as for B1
# B4: S008-NB148-48 (Fc fusion)
# chain: QLQLVESGGGLVQAGGSLKLSCVASGFTFSNYAMAWYRQAPGKQRELIASCSASCIWTNYGASVKGRFTMSLDNAKKTVYLQMDSLKPEDTAVYYCRNLDANYWGQGTQVTVSS[human IgG1 Fc with changes not shown]
# notes: as for B1
# B5: S008-NB148-69 (Fc fusion)
# chain: EVQVVESGGGLVQAGGSLRLSCAASTITISSAGVSWYRQAPGKQRELVAIITRGGSTNYADSVKGRFTISRDNAKNTHYLQMYNLKPEDTGIYYCNVVPPTYWGQGTQVTVSS[human IgG1 Fc with changes not shown]
# notes: as for B1
# B6: S008-NB148-13 (Fc fusion)
# chain: EVQVVESGGGLVQPGGSLRLSCAASDDISSIYTMAWYRQAPGKQRELVALVTPGGGTNYADSVKGRFTISRDNAKNTVYLQMNSLKPEDTAVYYCNARHRVTGFAYWGQGTQVTVSS[human IgG1 Fc with changes not shown]
# notes: Tested as VHH-Fc; order VHH-hinge-Fc inferred; also called S00S-NB1 48-13
# B7: S008-NB149-9 VHH-Fc antibody (Fc fusion)
# chain: QVQLVESGGFVQAGGSLRLSCAASGRTFSKYAMGWFRQAPGKEREFVAAIRWIGGSTYYADSVKGRFTISRDNDKNTLYLQMNSLKPEDTAVYYCAAGYQAYPEPPWEYDYWGQGTQVTVSS[human IgG1 Fc with changes not shown]
# B8: S008-NB148-9 VHH-Fc antibody (Fc fusion)
# chain: EVQLVESGGGLVQAGGSLRLSCAASGSTLSSYAMGWYRQAPGKQRELVAAISSGGGSTNYRDSVKGRFTISRDNAKNTVYLQMNSLKPEDTAVYYCKSTDYGSLFDSWGQGTQVTVSS[human IgG1 Fc with changes not shown]
# B9: S008-NB148-69 VHH-Fc antibody (Fc fusion)
# chain: EVQVVESGGGLVQAGGSLRLSCAASTITISSAGVSWYRQAPGKQRELVAIITRGGSTNYADSVKGRFTISRDNAKNTHYLQMYNLKPEDTGIYYCNVVPPTYWGQGTQVTVSS[human IgG1 Fc with changes not shown]
# B10: S008-NB148-13 VHH-Fc antibody (Fc fusion)
# chain: EVQVVESGGGLVQPGGSLRLSCAASDDISSIYTMAWYRQAPGKQRELVALVTPGGGTNYADSVKGRFTISRDNAKNTVYLQMNSLKPEDTAVYYCNARHRVTGFAYWGQGTQVTVSS[human IgG1 Fc with changes not shown]
# Target: T1, Her2 protein (human, UniProt P04626 in part)
# T1 construct: Bought protein; also called human Her2 protein
row,OD450,Binder
1,0.15,B1
2,0.18,B2
3,0.14,B3
4,0.16,B4
5,0.14,B5
6,0.21,B6

# Target: T2, human EGFRvIII-His tag protein (extracellular domain Leu25-Ser378) (human, UniProt P00533 in part)
# T2 construct: Made in HEK293E cells, purified on nickel column; also called human EGFRvIII protein; EGFRvIII protein; not shown: His tag
row,OD450,Binder
1,0.06,B7
2,0.21,B8
3,0.16,B9
4,0.21,B10

# Target: T2, human EGFRvIII-His tag protein …
# Remark: another data set of the same source
row,OD450,Binder
1,0.29,B7
2,2.32,B8
3,2.2,B9
4,2.32,B10

# Target: T1, Her2 protein
# Remark: another data set of the same source
row,OD450,Binder
1,0.17,B1
2,0.16,B2
3,0.15,B3
4,0.16,B4
5,0.18,B5
6,0.14,B6

# Target: T2, human EGFRvIII-His tag protein …
# Remark: another data set of the same source
row,OD450,Binder
1,0.07,B7
2,0.84,B8
3,0.73,B9
4,0.94,B10

# Target: T3, monkey EGFR protein (cynomolgus monkey, UniProt P55245 in part (rhesus entry))
# T3 construct: Bought protein (SB 90285-C08H); also called cynomolgus monkey EGFR
Kd,koff,kon,Binder
2.58 nM,0.000185 s⁻¹,71700 M⁻¹ s⁻¹,B1
13.5 nM,0.00147 s⁻¹,109000 M⁻¹ s⁻¹,B2
7.54 nM,0.000659 s⁻¹,87400 M⁻¹ s⁻¹,B3
1 nM,,95400 M⁻¹ s⁻¹,B4
3.28 nM,0.000176 s⁻¹,53600 M⁻¹ s⁻¹,B5
12.1 nM,0.000616 s⁻¹,50900 M⁻¹ s⁻¹,B6

# Target: T2, human EGFRvIII-His tag protein …
# Remark: another data set of the same source
row,OD450,Binder
1,0.18,B7
2,1.99,B8
3,1.87,B9
4,2.05,B10

# Target: T1, Her2 protein
# Remark: another data set of the same source
row,OD450,Binder
1,0.08,B1
2,0.09,B2
3,0.09,B3
4,0.11,B4
5,0.08,B5
6,0.15,B6

# Target: T1, Her2 protein
# Remark: another data set of the same source
row,OD450,Binder
1,0.12,B1
2,0.11,B2
3,0.08,B3
4,0.08,B4
5,0.12,B5
6,0.13,B6

# Target: T4, human EGFR protein (human, UniProt P00533 in part)
# T4 construct: also called human EGFR-His; human EGFR-ECD protein; not shown: His tag
Kd,koff,kon,Binder
5.41 nM,0.000317 s⁻¹,58600 M⁻¹ s⁻¹,B1
36.6 nM,0.00862 s⁻¹,235000 M⁻¹ s⁻¹,B2
472 nM,0.0141 s⁻¹,29900 M⁻¹ s⁻¹,B3
16.3 nM,9.55 s⁻¹,,B4
10.1 nM,0.000369 s⁻¹,36400 M⁻¹ s⁻¹,B5
257 nM,0.0109 s⁻¹,42400 M⁻¹ s⁻¹,B6

# Target: T2, human EGFRvIII-His tag protein …
# Remark: another data set of the same source
row,OD450,Binder
1,0.32,B7
2,2.47,B8
3,2.36,B9
4,2.38,B10

# Target: T5, human EGFRvIII-His tag protein (human, UniProt P00533 in part)
# T5 construct: Made in HEK293E, purified on nickel column; also called human EGFRvIII protein; not shown: His tag
Kd,koff,kon,Binder
12.1 nM,3.46 s⁻¹,,B1
24.9 nM,13.3 s⁻¹,5.32e+08 M⁻¹ s⁻¹,B2
56.4 nM,3.25 s⁻¹,5.76e+07 M⁻¹ s⁻¹,B3
23.4 nM,6.66 s⁻¹,2.85e+08 M⁻¹ s⁻¹,B4
2.62 nM,0.000165 s⁻¹,63100 M⁻¹ s⁻¹,B5
50.5 nM,0.00246 s⁻¹,48600 M⁻¹ s⁻¹,B6

# Target: T1, Her2 protein
# Remark: another data set of the same source
row,OD450,Binder
1,0.1,B1
2,0.05,B2
3,0.12,B3
4,0.11,B4
5,0.11,B5
6,0.15,B6

# Target: T1, Her2 protein
# Remark: another data set of the same source
row,OD450,Binder
1,0.12,B1
2,0.09,B2
3,0.1,B3
4,0.06,B4
5,0.11,B5
6,0.13,B6

# Target: T1, Her2 protein
# Remark: another data set of the same source
row,OD450,Binder
1,0.12,B1
2,0.12,B2
3,0.12,B3
4,0.11,B4
5,0.09,B5
6,0.2,B6

# Target: T2, human EGFRvIII-His tag protein …
# Remark: another data set of the same source
row,OD450,Binder
1,0.58,B7
2,2.58,B8
3,2.53,B9
4,2.6,B10

# Target: T4, human EGFR protein
# Remark: another data set of the same source
row,EC80,Binder
1,21.1 µg/mL,B1
2,24.5 µg/mL,B2
3,7.9 µg/mL,B3
4,64.2 µg/mL,B4
5,3.3 µg/mL,B5
6,1.1 µg/mL,B6

# Target: T2, human EGFRvIII-His tag protein …
# Remark: another data set of the same source
row,OD450,Binder
1,0.06,B7
2,0.08,B8
3,0.07,B9
4,0.08,B10

# Target: T2, human EGFRvIII-His tag protein …
# Remark: another data set of the same source
row,OD450,Binder
1,0.11,B7
2,0.06,B8
3,0.08,B9
4,0.1,B10

# Target: T1, Her2 protein
# Remark: another data set of the same source
row,OD450,Binder
1,0.09,B1
2,0.09,B2
3,0.11,B3
4,0.06,B4
5,0.11,B5
6,0.13,B6
